Data reported in the supplement of paper PMC7826260.
The other results are listed elsewhere or left out. Cleavage of a single-stranded DNA pool by Rep nickase domains was read by sequencing at 3 µM enzyme and 37 °C for 1 h; the strands have 90 letters, of which the middle is given. A value is the log2 ratio of uncut reads to the pool without enzyme; strong cutting gives strongly negative numbers. There is no active / inactive call. Reads are scaled to the total; where an enzyme cuts many sequences, the uncut ones exceed 0.

Tests used:
Assay in all cases: uncleaved DNA left, log2 of reads against the no-enzyme library (log2 ratio); higher = less cleavage (more negative = more Rep cleavage of the k-mer); sequences stand for … in CTCGTCCG…ACCGGAGA
[1] = tested on: T1, Rep nickase domain of Muscovy duck circovirus
T1 sequence (residues 1-111, tag not shown): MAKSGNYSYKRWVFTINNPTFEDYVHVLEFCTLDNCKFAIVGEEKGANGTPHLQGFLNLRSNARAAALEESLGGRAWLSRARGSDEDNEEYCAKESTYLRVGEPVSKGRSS
Procedure: (§1)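 A pool of 90-nt single-stranded DNAs with seven random bases just before the constant AC of the nick site (name = the seven bases) was cut by 3 µM recombinant His6-SUMO-tagged Rep nickase domain (300 nM DNA, 50 mM HEPES pH 8.0, 50 mM NaCl, 1 mM MnCl2, 1 h, 37 °C, three replicates). Uncut DNA was amplified and sequenced.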

[2] = tested on: T2, Rep nickase domain of banana bunchy top virus
T2 sequence (residues 1-94, tag not shown): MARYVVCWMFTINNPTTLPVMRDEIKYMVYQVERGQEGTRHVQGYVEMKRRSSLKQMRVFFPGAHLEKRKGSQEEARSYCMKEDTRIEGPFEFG
Procedure: as §1

[3] = tested on: T3, Rep nickase domain of cabbage leaf curl virus
T3 sequence (residues 1-116, tag not shown): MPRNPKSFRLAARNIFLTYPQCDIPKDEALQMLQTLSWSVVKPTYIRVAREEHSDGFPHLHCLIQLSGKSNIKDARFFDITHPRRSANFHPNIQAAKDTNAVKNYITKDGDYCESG
Procedure: as §1

[4] = tested on: T4, Rep nickase domain of chickpea chlorotic dwarf virus
T4 sequence (residues 1-124, tag not shown): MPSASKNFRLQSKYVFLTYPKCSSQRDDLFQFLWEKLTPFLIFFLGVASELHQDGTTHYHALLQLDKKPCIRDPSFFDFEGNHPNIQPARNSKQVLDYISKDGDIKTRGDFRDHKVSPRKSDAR
Procedure: as §1

[5] = tested on: T5, Rep nickase domain of faba bean necrotic yellows virus
T5 sequence (residues 1-98, tag not shown): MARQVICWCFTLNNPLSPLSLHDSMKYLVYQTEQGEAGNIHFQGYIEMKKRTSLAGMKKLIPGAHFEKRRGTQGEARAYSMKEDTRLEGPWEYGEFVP
Procedure: as §1

[6] = tested on: T6, Rep nickase domain of maize striate mosaic virus
T6 sequence (residues 1-117, tag not shown): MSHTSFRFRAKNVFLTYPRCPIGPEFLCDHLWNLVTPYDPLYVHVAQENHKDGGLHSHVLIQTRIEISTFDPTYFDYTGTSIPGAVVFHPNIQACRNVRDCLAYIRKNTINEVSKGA
Procedure: as §1

[7] = tested on: T7, Rep nickase domain of porcine circovirus 2
T7 sequence (residues 2-116, tag not shown): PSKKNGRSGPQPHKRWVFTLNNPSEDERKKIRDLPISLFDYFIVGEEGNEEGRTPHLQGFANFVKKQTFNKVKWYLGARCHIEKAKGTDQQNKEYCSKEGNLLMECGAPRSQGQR
Procedure: as §1

[8] = tested on: T8, Rep nickase domain of tomato golden mosaic virus
T8 sequence (residues 1-124, tag not shown): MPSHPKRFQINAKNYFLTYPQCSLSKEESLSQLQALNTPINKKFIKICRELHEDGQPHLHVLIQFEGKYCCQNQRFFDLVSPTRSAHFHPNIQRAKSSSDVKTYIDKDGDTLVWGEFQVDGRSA
Procedure: as §1

[9] = tested on: T9, Rep nickase domain of tomato yellow leaf curl virus
T9 sequence (residues 1-136, tag not shown): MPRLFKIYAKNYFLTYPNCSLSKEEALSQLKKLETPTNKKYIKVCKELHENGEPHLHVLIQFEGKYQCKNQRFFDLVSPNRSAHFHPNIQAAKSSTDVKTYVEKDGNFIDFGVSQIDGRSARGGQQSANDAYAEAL
Procedure: as §1

[10] = tested on: T10, Rep nickase domain of wheat dwarf virus
T10 sequence (residues 1-137, tag not shown): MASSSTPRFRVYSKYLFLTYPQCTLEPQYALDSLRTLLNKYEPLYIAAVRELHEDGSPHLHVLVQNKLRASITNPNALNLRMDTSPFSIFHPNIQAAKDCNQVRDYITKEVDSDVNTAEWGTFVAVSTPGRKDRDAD
Procedure: as §1

| Sequence | uncleaved DNA left (log2) [1] | uncleaved DNA left (log2) [2] | uncleaved DNA left (log2) [3] | uncleaved DNA left (log2) [4] | uncleaved DNA left (log2) [5] | uncleaved DNA left (log2) [6] | uncleaved DNA left (log2) [7] | uncleaved DNA left (log2) [8] | uncleaved DNA left (log2) [9] | uncleaved DNA left (log2) [10] |
| --- | --- | --- | --- | --- | --- | --- | --- | --- | --- | --- |
| CAGCGAG | -0.0601 | 0.00566 | -0.129 | 0.0854 | 0.0798 | -0.452 | 0.214 | 0.105 | 0.0767 | -0.0549 |
| GTGATAG | -0.0249 | 0.00145 | 0.0478 | 0.503 | 0.0853 | 0.0142 | 0.0723 | 0.0462 | 0.0758 | -0.0318 |
| CACTCAG | 0.0383 | 0.000143 | -0.693 | -0.453 | 0.0235 | -1.13 | 0.0318 | 0.0527 | -0.00791 | -0.0271 |
| CGAGTAA | 0.0617 | 0.127 | 0.0476 | 0.0945 | -0.0318 | 0.073 | -0.425 | 0.212 | 0.105 | 0.195 |
| GGATAAA | 0.0237 | 0.0571 | 0.623 | 1.48 | 0.0499 | 1.93 | 0.251 | 0.121 | 0.0417 | 0.159 |
| ACACGAC | -0.00809 | 0.0563 | -0.191 | -0.243 | 0.0418 | -0.775 | 0.111 | 0.0492 | -0.0428 | 0.0204 |
| CCGGGGC | -0.105 | -0.157 | 0.762 | 1.14 | -0.111 | 2.11 | 0.096 | -0.0176 | -0.0912 | -0.0799 |
| TGTACGC | 0.0329 | 0.0957 | 0.189 | -0.0344 | 0.0567 | -0.156 | 0.0664 | 0.0293 | 0.0609 | 0.0468 |
| CATCCTT | 0.182 | -0.0857 | -0.377 | -2.57 | 0.194 | -0.562 | -0.782 | 0.00391 | 0.00182 | -0.00724 |
| TTTGTAG | 0.0654 | -0.0312 | -0.807 | -0.42 | -0.00858 | -1.23 | 0.188 | 0.05 | 0.0862 | -0.119 |
| GAAACGG | 0.0182 | 0.108 | 0.554 | 1.66 | -0.0267 | 2.08 | 0.146 | 0.185 | -0.0168 | 0.0454 |
| AAGCAGA | 0.0382 | 0.0296 | 0.167 | 0.249 | 0.11 | -0.0101 | 0.175 | 0.204 | 0.0727 | 0.0455 |
| ATTTTTT | -3.14 | -2.99 | -0.115 | -2.67 | 0.0935 | -0.773 | -3.25 | 0.0308 | -0.0552 | -0.0478 |
| GATGCTT | -0.105 | -0.454 | 0.057 | -0.915 | -0.103 | 0.317 | -0.43 | 0.00493 | -0.0752 | -0.238 |
